This is one part of the list. At the low end of the ranking, values are background and their order means little. The protein was read in a cell extract, so binding may be indirect.
Molecular target: T1, HNF4alpha2 (COS-7 nuclear extract) (UniProt P41235)
T1 sequence: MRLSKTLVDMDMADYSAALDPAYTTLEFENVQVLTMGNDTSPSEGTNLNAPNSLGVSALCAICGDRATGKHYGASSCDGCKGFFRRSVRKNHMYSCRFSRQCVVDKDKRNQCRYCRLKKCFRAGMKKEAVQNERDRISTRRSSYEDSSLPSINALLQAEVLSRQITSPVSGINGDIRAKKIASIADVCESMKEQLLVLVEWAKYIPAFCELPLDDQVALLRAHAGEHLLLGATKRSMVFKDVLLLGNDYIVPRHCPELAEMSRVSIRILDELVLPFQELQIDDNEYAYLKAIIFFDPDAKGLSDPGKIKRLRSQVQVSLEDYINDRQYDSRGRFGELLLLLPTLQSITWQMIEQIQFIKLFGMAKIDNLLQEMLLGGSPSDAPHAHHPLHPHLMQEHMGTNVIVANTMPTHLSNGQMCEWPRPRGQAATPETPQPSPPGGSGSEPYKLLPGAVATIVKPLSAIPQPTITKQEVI
Test: protein-binding microarray
Conditions: COS-7 nuclear extract on double-stranded Agilent 4x180k PBM; binding buffer, salt, pH and temperature not given; high values mean tight binding; double strand, one strand shown; sequences stand for … in …GCCTAGGGAGATTAGAGTATCGGTCGA

| Sequence | binding signal (log2 normalized intensity) |
| --- | --- |
| ACAAAGAAATGTAACCTTTGGCCAATTGCA | 4.29 |
| GCAATTGGTCAAAGGTCACCAGTGAGCCAA | 4.99 |
| CAGATGGAATGTGTGCCCGTCACCTCTGAA | -0.532 |
| TCCTTCCTCAAGACCCTTTACTGCCATCTG | 0.877 |
| CCTTTTTTGAAGGTTAAAGTCCATTTTTGA | 6.53 |
| GGGAGGGTGGGTTATCAGTAAGAGCATCAG | 0.55 |
| AAAGAGACAAAGCTTTGAAGATGCTTTTTG | -1.18 |
| ATTCCTTCCCAAGTGCTAGCTTGGTCTGAA | -0.145 |
| AGCTGCTTCGGCCAGCACAGGAGGCCTCTC | -1.11 |
| ACATGTACAGTATTGCGTAAGTTGTTCCTT | 1.68 |
| AAACTGCAGCTGCTGCACTGATAAGAAAGC | -1.17 |
| CTGACCCCAGCATGTTTGGGTCACAATCAC | 2.09 |
| GTCTTCCTGGTGACCTTTGTTTGGTCAAAT | 4.06 |
| TTTCACCTCTGCACCCCACCAAGGACTGGA | 2.54 |
| GTAGATAAGCAGATCTGGGCAATGTCAACA | -0.929 |
| CACTGCTTTGTTCCCTGGCTCACTGACTCA | -0.952 |
| CAATTAGAGCAAAGGTTACTGCAGAGAAGA | 1.54 |
| CCAGAACGTGGCCTTTAATCAACTGCAGGA | -0.991 |
| TAACTCAAAATCTGCTCTGTCCTGAGATGT | 1.06 |
| GAACTGAGCAGGCCTGGGCTTGCAAAGGTC | 2.63 |
| TGTACAAAGGTCACTTCTGTTCATTGATAA | 3.92 |
| CTGAAACATGCCTATGACCGAGGGTTAAGC | -0.865 |
| AGGATCACCTGAGTCCAGAGGTCAAGGCTG | 3.8 |
| TCCAAAGAGCTCAACCTGTGAAAATTGGTA | -1.33 |

| Sequence | binding signal (log2 normalized intensity) |
| --- | --- |
| CCATTACTTCTGTTTGCATTAGTTATATCT | 1.4 |
| AATCCCAGGGTCAGAGGTCGCGAGGGAGAG | 3.24 |
| AGGCCAGGCATACCTTTCTTATCATAAGTA | -0.983 |
| AACGGCAGGGTTGTGCAGGACTGCGTAACT | -1.13 |
| GGGAAAACTTACGCACATTACTTTGATTGG | 0.391 |
| CCTCCCACCCCCACGGTGCGCTGCCCCTCA | 5.24 |
| AAGGTCTTAAGTGTCATTAGTAACAAACAC | 1.05 |
| ATGAATGCCTTGGCCTCTGCAGACATGGAC | 1.26 |
| GCAGAGCAGGTTCTCAGGCCAATCATATCT | -1.06 |
| CCTTACCATTGCTTTCTTCCAAGGCTGCAA | -0.862 |
| GGCCGCCCAAGCGAATATGTCAGGCTCAGG | -0.889 |
| GAGCAGGAACCTTGTGGTGGTGAAAGTCAA | 0.207 |
| TCCAGGAATGGAAACCCCTGTAAGTCCAAA | 2.69 |
| GGAGAGGATGGGGACAAAGGTCAAGAAAGC | 5.86 |
| AAATCCAAAGGTCAACAGCCAGCCTCAAAG | 3.6 |
| TCTGGTGGCACACAGAGGACGTCAGGCAGA | -0.214 |
| CTTACTCTCTCCCTCCTCCTTTTTTTCCCC | 2.98 |
| AGTCCAAAATCAGTCTCAGTGGGCTAAACA | -0.564 |
| AGAATTGGTCCTGGAACTCAAAGGTCAAAT | 5.03 |
| GTTCTCCTTTCTGCCCTTTGAAGCATGTGA | 3.07 |
| CCGTGGCTGGAACTCCTCCGGTCAAGATCA | -1.18 |
| GGCAGTGACTGGACCACGATCAGCCAGCAG | -1.11 |
| TAGAACCCAGGCACAGGTCCTACTCACACT | -1.15 |
| GACTCTTGGACTCCCTGAAGAAACAGTCTT | 0.399 |

| Sequence | binding signal (log2 normalized intensity) |
| --- | --- |
| TCAGGGGTCAATGTGCACATTCGAAGTTTT | 4.11 |
| CACGTGCAAAGTACAAAGTACAGAGATGGC | 3.27 |
| CTGGTCAGAAGAAACATGCGATACTTGACC | 2.05 |
| ACAACTTTTCCTCTAACCACTTTGAAATAG | 0.611 |
| TTCAGAGGACTGCCCAGCTGCATCCTGTGC | -1.1 |
| GACGTACGCTCCCAGTATGAGCGGCGCTGA | -1.19 |
| GGAGTTTGTACTTTATCCTACAAGGGAGAT | 2.01 |
| GACCTTGTTTTCAATGACTACCTGTTACCC | 1.45 |
| GGCTGCAGAGGTTTCGCAAGGACGTGACCT | 2.92 |
| AAGGAGTGGAGGAAGGAAGAAGTGTTAAGG | -0.932 |
| TTTCTGTATCTCTTCGCCTTGCTTATCTGG | 1.59 |
| AACACACCATGTACAGAGAGCATTCTGCTG | -0.779 |
| TCTCTGAGCAGTCAAACTGGTTTCTTGTCT | 1.25 |
| ACGGCAAGCCATAGTTAACCCAGAAGACTG | -1 |
| CCACTCCAGCCTCTCCACCAGGGGACCAGG | -1.24 |
| CCACAGAATCGCCCCACCCTGCCTGGGTAG | 1.35 |
| TGTCCTTTGTCCCCCACCTGTGAAGATAAG | 3.9 |
| CCTTCACTCTGGGGCAATAACCCTAGACAC | -1.04 |
| ATTTATTTTGTGTGCTAGATACTGGAGATA | 0.795 |
| AAAGCCCTCAAATACTCTGAGTAAACACAG | -1.12 |
| AACTCCCAGTCTGTTATCAGAGCTGGAGGA | -1.14 |
| GGCGGCCGCGCGCAGGGCGGACAGCGCCGC | -1.17 |
| ATCTCTTTTGTGTTAGAGGGTGGTGGGTGA | 1.72 |
| ACACAGATCATATCATTTATTTGCTTAAAA | -0.857 |

| Sequence | binding signal (log2 normalized intensity) |
| --- | --- |
| GAGATCTAAGCGATAAGGAGGAAGGACACT | -1.08 |
| TTGATCTTTGTGTACAAAGCCATCAGCACT | 0.278 |
| CAAAGGTCACGTTCCAGCTGCTTCAGGAGC | 2.67 |
| TGGGAATGCCCTTTATACAGGCATGGAAGT | 1.62 |
| TTCTGAGCAAATATTTGGGGTATGTGCTCA | 0.428 |
| CCGAGCAGGACGCTACCCGCTTGGCGTAGG | -1.07 |
| AACCAAGATAGTGACGGAGGTGACCTTTGG | 6.38 |
| TATTCCCAGGTTCCAAAGGTCACCCGTATT | 6.51 |
| GGGAATGTCACAGGGGCCATGCAGGGCAGG | -1.06 |
| GTGAACTGGAGCAAAGGTCACTCTTGCTAT | 4.5 |
| TACTTTGCTTCCAAGTTATGCAGACCTTTG | 2.14 |
| ATCCCAAAGCTTTTTGATTGCTTATAGCTT | -0.345 |
| CCACATGAATACACATAATGTGCTTATCAG | -0.605 |
| GGGTGCAGGGAGAAGGCAAAAATGCAGGCA | -1.07 |
| ACAGCAAAGATGAATCATGTAACCAAAATG | -0.449 |
| GTCAAAACCACCTATTCTGAAGATTGCTAG | -1.12 |
| CCTTTGGCAATATCTCCCAGCTGGAGTCTT | -0.0114 |
| CTGACTAGAGTGGAGTGAAGTAAGAGTAGC | -1.12 |
| GGACTGCAGGGGGCCAAGGGATACCCTGAG | -1.02 |
| ATATTTACTTATGGTTTGACCCTGCGATAA | 2.84 |
| CAGTGGGAGACAGGCATTAACCCTTTAGTG | 0.725 |

From publication PMC10726135
